Test results taken from the supplement of paper PMC3334620.
Over roughly 33,000 sequences, “E-score (-0.5 to 0.5)” has its median near -0.021; the highest 2% begin near 0.32. Some of the results follow.

target: T1, Zap1 (UniProt P47043); test: PBM E-score (8-mer binding enrichment) (E-score (-0.5 to 0.5)); higher = stronger / more preferred TF binding; most listed sequences are background and not binding sites; details: protein concentration: 200 nM; construct: GST-full length
T1 sequence: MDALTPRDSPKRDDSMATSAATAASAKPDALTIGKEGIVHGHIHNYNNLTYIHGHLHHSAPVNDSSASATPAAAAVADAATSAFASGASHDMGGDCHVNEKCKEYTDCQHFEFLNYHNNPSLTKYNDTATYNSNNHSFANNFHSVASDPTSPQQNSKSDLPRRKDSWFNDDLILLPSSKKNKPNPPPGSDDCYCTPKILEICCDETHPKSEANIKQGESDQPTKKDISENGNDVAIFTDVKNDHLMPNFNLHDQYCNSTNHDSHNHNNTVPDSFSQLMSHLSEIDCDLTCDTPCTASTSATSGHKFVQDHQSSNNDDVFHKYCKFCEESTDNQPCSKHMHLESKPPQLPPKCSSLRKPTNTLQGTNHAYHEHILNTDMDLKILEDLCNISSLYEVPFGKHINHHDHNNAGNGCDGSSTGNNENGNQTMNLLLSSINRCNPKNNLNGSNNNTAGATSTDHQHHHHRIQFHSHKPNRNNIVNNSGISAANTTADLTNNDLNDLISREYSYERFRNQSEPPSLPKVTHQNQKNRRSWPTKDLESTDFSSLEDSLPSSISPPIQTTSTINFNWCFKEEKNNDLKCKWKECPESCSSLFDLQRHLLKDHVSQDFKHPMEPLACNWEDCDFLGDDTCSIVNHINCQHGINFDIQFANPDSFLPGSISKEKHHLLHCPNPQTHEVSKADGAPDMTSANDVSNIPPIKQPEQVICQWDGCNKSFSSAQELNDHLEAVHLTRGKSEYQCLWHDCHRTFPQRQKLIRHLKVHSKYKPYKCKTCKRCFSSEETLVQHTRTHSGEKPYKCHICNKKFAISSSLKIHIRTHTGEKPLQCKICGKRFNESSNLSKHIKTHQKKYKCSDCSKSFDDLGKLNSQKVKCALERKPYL
Experimental: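 Universal 'all 10-mer' protein binding microarrays (Agilent AMADID 015681) probed with GST-tagged S. cerevisiae TFs (full-length or DBD) made by in vitro transcription/translation (PURExpress), about 100-200 nM. Bound TF was detected with fluorescent anti-GST. Each ungapped 8-mer (which stands for itself and its reverse complement) is scored by the PBM enrichment score (E-score), a modified Wilcoxon-Mann-Whitney statistic from -0.5 to +0.5, computed with the Universal PBM Analysis Suite. Scale: above 0.35 generally sequence-specific binding.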

| Sequence | PBM E-score |
| --- | --- |
| CTAAAAGC | -0.179 |
| CAAAATGG | 0.182 |
| CCCGAACG | 0.124 |
| AGCGCTTC | -0.171 |
| CACTTGGG | 0.0892 |
| ACCCGGGT | 0.317 |
| TAACGGAA | 0.104 |
| AAGAGCAT | -0.107 |
| ACATGGTG | 0.062 |
| CTCGAGGA | -0.0456 |
| ACGGGACC | -0.175 |
| ATGGCAAG | -0.147 |
| AGTATCAG | -0.2 |
| CTGATCCC | -0.303 |
| CTACATAG | 0.00113 |
| CCCCTCGG | 0.34 |
| AAGCTCAC | -0.16 |
| AGATGGCT | -0.157 |
| ACCACGAC | 0.18 |
| GCTTGCGA | 0.0401 |
| ATTCATTG | 0.0157 |
| AGCGTAGA | -0.196 |
| AGCTGCCC | -0.165 |
| AATCAGGA | -0.0462 |
| ATAAGTGA | 0.0161 |

| Sequence | PBM E-score |
| --- | --- |
| GCCAATAC | -0.132 |
| ATCACATG | -0.0846 |
| ACAACGGA | 0.0273 |
| GACCCGCC | 0.131 |
| CATCCCGC | -0.00733 |
| ACTCGCCG | -0.175 |
| CAGACTCA | 0.024 |
| GTACACCA | 0.0765 |
| ATACGAGG | -0.0493 |
| AGCCGCGA | 0.0301 |
| GGACGATA | -0.128 |
| CGTCGCGC | -0.192 |
| GATTCCGA | -0.0994 |
| AAACTAGT | 0.101 |
| AAAGATTA | -0.00605 |
| CGCTCTTC | -0.228 |
| ATGAGCGC | -0.0149 |
| GGACAGAA | 0.0329 |
| TCGCCTAA | -0.064 |
| CCTAACAG | 0.142 |
| ACGTTATG | 0.0376 |
| GCTTATTA | 0.0903 |
| CATGGCTA | -0.23 |
| AACTCGAA | 0.0717 |
| AGCTCATC | -0.261 |

| Sequence | PBM E-score |
| --- | --- |
| CGCAGTAC | -0.0492 |
| GACGGGCA | -0.194 |
| CGTTCAAC | 0.0372 |
| CTTGCTGC | -0.163 |
| GATGCAAC | -0.0942 |
| CTAGATCA | -0.0664 |
| ACCGTGAG | -0.0433 |
| TTAAGGAA | 0.0736 |
| ACACGAAG | 0.094 |
| AGGAAAGG | -0.149 |
| AGTTCCTA | 0.00608 |
| CTCCCAGA | -0.221 |
| ACAGAAGC | -0.00364 |
| GCCATGGC | -0.0165 |
| GAGGGGGA | -0.176 |
| ATACGAAC | -0.0244 |
| AGCACCCA | -0.0894 |
| ACTGATCG | -0.186 |
| GCCTGGGA | -0.14 |
| AAACTACA | 0.0938 |
| CATCGAAC | -0.2 |
| ACGGCAGA | -0.0833 |
| AACTTAGT | -0.0399 |
| ATCATGTG | -0.0397 |
| CGGGATAC | 0.0285 |

| Sequence | PBM E-score |
| --- | --- |
| ATAATGCG | 0.0994 |
| GGCTCCCC | 0.0408 |
| AATGAGAA | -0.103 |
| CCTGTACC | -0.0655 |
| CCGACAAC | 0.0322 |
| AGGTGGGC | -0.0375 |
| AACCGTTC | 0.103 |
| ACCCACCT | 0.213 |
| AGTCGAAT | -0.146 |
| CCTGTCAC | -0.0162 |
| ATTTCGTC | 0.113 |
| TATAACAA | 0.291 |
| CCCGAGGG | 0.307 |
| GTGAAGTA | -0.0951 |
| CGGGGAGC | -0.0824 |
| ATTGCACA | 0.0408 |
| CGCACGAC | -0.18 |
| GAGAAGTA | -0.09 |
| CGTCACAG | 0.113 |
| ATAAGCGA | -0.0126 |
| AGTGTGAT | -0.138 |
| ACGCACAC | 0.131 |
| AATAGGTC | 0.162 |
| ACCGATTA | 0.011 |
| GAACAGGC | -0.307 |

| Sequence | PBM E-score |
| --- | --- |
| CCTCCGAA | -0.188 |
| CTGATTGA | 0.0661 |
| AATAGCGA | 0.0197 |
| GCCCGGAC | -0.223 |
| AAACCACT | 0.165 |
| ACTCGCTA | -0.0232 |
| AATACCTG | 0.0483 |
| GCACTTCC | -0.192 |
| ATTCCCAC | -0.0158 |
| AATGAGGC | 0.0272 |
| GCAATCAC | -0.0144 |
| TAGGCAAA | -0.0671 |
| AAAGGCGG | -0.0589 |
| ACATTTAA | 0.259 |
| ATGTACGC | -0.153 |
| ACGATATG | 0.0602 |
| GCCCGCAC | -0.202 |
| GCACGGTA | 0.0132 |
| CTGACTCC | -0.289 |
| ACGAGAAC | 0.159 |
| CTCTTAAC | 0.11 |
| AACGCTTG | -0.168 |
| TATCAAGA | 0.0816 |
| ACCTGATC | -0.0818 |
| ACAGAACC | 0.0979 |

| Sequence | PBM E-score |
| --- | --- |
| AAACCCTC | 0.175 |
| TGTATAAA | 0.0902 |
| CAGCAACC | 0.0927 |
| TACTATAA | 0.249 |
| ACTCGGAG | -0.136 |
| CCGCTCCG | -0.17 |
| CAGGCGCG | -0.199 |
| AACGATGA | 0.0347 |
| GTTTACGA | 0.0224 |
| ACCCATAT | 0.267 |
| CGAGAGCG | -0.187 |
| CTCGCGCA | -0.194 |
| ACACGCCT | -0.16 |
| AATGCGCG | 0.00966 |
| GTGGTAGA | -0.245 |
| ATCTGCTA | -0.148 |
| ACGTTGAC | -0.164 |
| CAAGGCGG | -0.18 |
| AGAAGCTA | -0.265 |
| ATACCCAA | 0.247 |
| GTCCCCAA | 0.0352 |
| GCAGGTAA | 0.173 |
| AATGGCAC | -0.15 |
| CCGTCGAC | -0.0425 |
| CCCCAGGA | -0.128 |

| Sequence | PBM E-score |
| --- | --- |
| GCTGATAC | -0.0997 |
| AATGACCG | 0.216 |
| ACCGGTGG | -0.0578 |
| GGACTCAC | -0.157 |
| CCACAGAC | -0.00747 |
| CGACCCCC | -0.304 |
| GAGGTCAC | 0.392 |
| ACGAAAGC | -0.0332 |
| ATGAACCG | -0.0519 |
| CCCCGAAA | 0.107 |
| ACCTTAAG | 0.269 |
| AATCGTCG | -0.21 |
| TAATCACA | 0.0822 |
| ATGCCCAA | -0.025 |
| ACGCGATC | -0.143 |
| CGAGGACA | -0.0989 |
| AGTCTGAT | -0.0553 |
| GAGACACC | -0.164 |
| GGCTTCAC | -0.346 |
| GCCGATGA | -0.28 |
| CATATAGA | 0.0361 |
| ATCTGGTG | 0.0645 |
